Test results published in a compilation of properties of binary mixtures (doi:10.1021/acs.jced.1c00241).
Some of these densities may be calculated back from excess volumes.

Assay: xn = mol fraction of the nth substance listed
Conditions: 100 kPa, x1 = 0.2

C[P+](c1ccccc1)(c1ccccc1)c1ccccc1.[Br-] + OCCO
Conditions	mass density [kg/m3]
298.15 K	1224
303.15 K	1220
308.15 K	1217
318.15 K	1209
333.15 K	1199
338.15 K	1195
343.15 K	1192
348.15 K	1188
353.15 K	1184
358.15 K	1181
